Results: paper PMC4336329 (PLoS ONE, 2015)
The whole screen tested about 310,000 compounds, of which about 2,200 (0.71%) showed an effect of 50% or more. The effect is printed as a negative number. The list shows a part of the results.

The molecules below were run against human ether-à-go-go-related gene (hERG) potassium channel (human, UniProt Q12809) (assay: primary screen, population patch clamp on CHO cells stably expressing hERG).
Chain of human ether-à-go-go-related gene (hERG) potassium channel (Q12809 whole entry, looked up): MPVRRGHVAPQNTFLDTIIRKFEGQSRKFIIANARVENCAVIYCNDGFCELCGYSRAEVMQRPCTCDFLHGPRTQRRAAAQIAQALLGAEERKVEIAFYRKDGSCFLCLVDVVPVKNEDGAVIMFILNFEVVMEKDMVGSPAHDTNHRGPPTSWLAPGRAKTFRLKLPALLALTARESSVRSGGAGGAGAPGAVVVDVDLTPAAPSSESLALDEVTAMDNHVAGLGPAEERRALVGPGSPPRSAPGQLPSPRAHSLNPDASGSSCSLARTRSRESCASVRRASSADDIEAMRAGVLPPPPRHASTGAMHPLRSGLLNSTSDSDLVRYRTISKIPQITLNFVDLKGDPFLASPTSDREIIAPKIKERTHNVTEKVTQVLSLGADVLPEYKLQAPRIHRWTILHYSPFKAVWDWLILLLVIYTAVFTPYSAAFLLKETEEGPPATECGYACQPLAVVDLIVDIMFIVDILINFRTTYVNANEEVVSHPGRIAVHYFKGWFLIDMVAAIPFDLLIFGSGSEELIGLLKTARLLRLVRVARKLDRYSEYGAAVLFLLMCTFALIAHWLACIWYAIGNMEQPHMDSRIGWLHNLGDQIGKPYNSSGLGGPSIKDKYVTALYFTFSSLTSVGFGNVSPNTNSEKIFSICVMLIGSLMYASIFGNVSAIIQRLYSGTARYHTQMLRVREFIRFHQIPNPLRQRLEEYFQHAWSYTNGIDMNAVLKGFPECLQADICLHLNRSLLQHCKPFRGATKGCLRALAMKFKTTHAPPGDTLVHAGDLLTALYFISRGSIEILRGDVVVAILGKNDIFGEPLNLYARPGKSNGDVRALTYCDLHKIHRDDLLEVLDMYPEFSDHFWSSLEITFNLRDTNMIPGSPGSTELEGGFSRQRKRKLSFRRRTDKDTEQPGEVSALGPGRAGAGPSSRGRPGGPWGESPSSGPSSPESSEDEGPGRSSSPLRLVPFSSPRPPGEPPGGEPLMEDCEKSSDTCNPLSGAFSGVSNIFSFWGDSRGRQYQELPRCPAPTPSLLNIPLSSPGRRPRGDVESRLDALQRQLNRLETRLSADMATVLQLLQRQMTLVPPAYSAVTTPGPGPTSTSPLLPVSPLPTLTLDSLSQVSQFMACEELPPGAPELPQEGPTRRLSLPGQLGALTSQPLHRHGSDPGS

In order of falling “hERG current change (%, negative = inhibition) at 1uM” value:
1. Cc1c(N(C)S(=O)(=O)c2cccc(C(=O)NC(C)C)c2)c(=O)n(-c2ccccc2)n1C  22.7%
2. CCOC(=O)N(c1ccccc1)P1(=S)OCC(C)O1 (centres unmarked)  21.6%
3. CCC(=O)N1CCc2cc(S(=O)(=O)NC(Cc3ccccc3)C(=O)NC3CCCC3)ccc21 (centres unmarked)  21.3%
4. CC1SC(c2ccccc2Cl)NC1=O (centres unmarked)  21.2%
5. Cc1ccc(Nc2nnc(SCC(=O)c3ccc(O)cc3O)s2)cc1  20.7%
6. C#CCOc1ccc(/C=C2/C(=O)ON=C2C)cc1Br  19.7%
7. S=c1nc(-c2ccccc2Cl)[nH][nH]1  19.4%
8. O=C(NCC1OCCc2ccccc21)c1ccc(NC(=O)c2ccccc2Cl)cc1 (centres unmarked)  18.9%
9. O=C(Nc1cccc(-c2cn3ccccc3n2)c1)c1cc2ccccc2oc1=O  17%
10. NC(N)=N/N=C/c1c(Cl)cccc1Cl  16.7%
11. COc1cc(NC(=O)c2cc3ccccc3cc2OC)ccc1NC(=O)c1cccs1  16.4%
12. Cc1cc(C)n(Cc2nc3ccccc3n2C)n1  16.4%
13. COc1ccc(C2C(CC(=O)O)=C(Nc3ccccc3)C(=O)N2c2ccccc2)cc1 (centres unmarked)  16.1%
14. CCOc1c2ccc(C(=O)NC3CCCc4ccccc43)cc2nn1CC (centres unmarked)  16.1%
15. CC(=O)Nc1cccc(C(=O)OCC(=O)Nc2c(C)nn(-c3ccccc3)c2C)c1  15.3%
16. COc1cccc(C2=NOC(C(=O)NC(C)(C)C)C2)c1 (centres unmarked)  14.9%
17. NC1=NC(=O)C(Cc2ccc(Br)cc2)S1 (centres unmarked)  14.9%
18. COc1ccc(-c2nc3c(c(=O)[nH]c(=O)n3Cc3ccccc3)n2CCO)cc1  14.9%
19. COc1ccc(NC(C#N)c2ccccc2OCc2ccccc2)cc1 (centres unmarked)  14.3%
20. CC(C)N(C(=S)NC1CCCCC1)c1ccccc1  13.9%
21. Cc1ccc(NC(=O)CN2C(=O)c3ccccc3C2=O)cc1  13.8%
22. CCOc1ccccc1NC(=O)NC1CC2CCCC(C1)N2Cc1nnnn1CCc1ccccc1 (centres unmarked)  13.4%
23. CCc1oc(C(=O)O)cc1CN(CC)CC.Cl  13.4%
24. COc1ccc(/C(N)=N/OC(=O)Oc2ccccc2)cc1  12.5%
25. Cn1nc(C(=O)Nc2cccnc2)c2ccccc2c1=O  12.4%
26. COc1ccc(NC(C)=O)cc1S(=O)(=O)Nc1ccc(OCc2ccccc2)cc1  12.4%
27. C=CCNC(=S)NCC1COc2ccccc2O1 (centres unmarked)  12.3%
28. Cc1c(C(=O)O)sc2nc(SCC(=O)Nc3ccc(S(=O)(=O)NCCCC(=O)O)cc3)[nH]c(=O)c12  12.1%
29. Cc1cccc(NCc2ccccc2O)c1  12%
30. NS(=O)(=O)c1ccccc1NC(=O)c1c(O)c2ccccc2[nH]c1=O  11.8%
31. COC(=O)c1ccc(-c2ncc(-c3cccc4ccccc34)o2)cc1  11.8%
32. CCc1ccc(N2C(=O)Cc3c2nc(N)c(C#N)c3N)cc1  11.5%
33. CCN(CC)S(=O)(=O)c1ccc(Cl)c(NC(=S)NC(=O)C2CCCC2)c1  11.5%
34. CN1C(=O)C(C)(C)c2cc(S(=O)(=O)N3CCCC3C(=O)NCc3ccc(F)cc3)ccc21 (centres unmarked)  11.5%
35. CC(C)OC(=O)Cn1c(=O)oc2ccccc21  11%
36. Cc1ccc(C(=O)N/C(=C\c2ccc(C)o2)C(=O)O)cc1  10.9%
37. COc1ccc(C2CC(C(F)(F)F)n3nc(C(=O)Nc4ccc5c(c4)OCO5)cc3N2)cc1 (centres unmarked)  10.7%
38. CCc1ccc(NC(=O)CCc2c(C)nn(-c3ccc(N4CCOCC4)nn3)c2C)cc1  10.5%
39. COc1ccc(OC)c(C2C(C#N)=C(N)N(N(C)C)C3=C2C(=O)CC(C)(C)C3)c1 (centres unmarked)  10.1%
40. O=C(O)/C=C/C(=O)Nc1ccc(Cl)c(C(=O)O)c1  10.1%
41. Cc1[nH]c(=O)[nH]c(=O)c1/C=C/C(=O)OCC(C)C  9.57%
42. CCOC(=O)N1CCN(S(=O)(=O)c2ccc(C(=O)NNc3nc4c(C)cc(C)cc4s3)cc2)CC1  9.54%
43. CCOc1ccc(S(=O)(=O)NNS(=O)(=O)c2ccc(C)cc2C)cc1  9.15%
44. CC(C)(C)S(=O)(=O)c1cnc2c(-c3ccc(Cl)cc3)cnn2c1N  8.97%
45. CC(C)(C)c1cc(NC(=O)c2cccc(S(=O)(=O)N3CCOCC3)c2)no1  8.95%
46. S=c1[nH]nc(-c2ccccc2)n1/N=C/c1cccs1  8.87%
47. CC(C)(C)OC(=O)N1CCC[C@H]1c1nnc(SCc2c(F)cccc2Cl)o1  8.57%
48. CN1C(=O)CC(C(=O)Nc2ccccc2F)SC1=Nc1ccc2c(c1)OCO2 (centres unmarked)  7.97%
49. Cc1[nH]n(-c2ccccc2)c(=O)c1/C=N/NC(=O)c1cccc([N+](=O)[O-])c1  7.96%
50. O=C1CC(N2CCOCC2)C(=O)N1c1ccc(Cl)cc1 (centres unmarked)  7.57%
51. Cc1ccc(CN2CCN(/N=C\C(Br)=C\c3ccccc3)CC2)cc1  7.53%
52. O=C(NCCCN1CCOCC1)c1ccc2c(c1)N(Cc1cccc(Cl)c1)C(=O)CS2  7.31%
53. O=C(C1CC1)N(Cc1nc2ccccc2c(=O)[nH]1)Cc1cccs1  6.85%
54. COc1ccccc1NC(=O)Cn1cnc2c(nnn2-c2ccc(C)cc2)c1=O  6.79%
55. COc1c(Cl)cc(Cl)cc1CNCCO.Cl  6.59%
56. Cl.SC(COCc1ccccc1)CN1CCN(Cc2ccc3c(c2)OCO3)CC1 (centres unmarked)  6.58%
57. Cc1ccccc1C(OCC(O)CN1CCN(CCO)CC1)c1ccccc1.O=C(O)C(=O)O (centres unmarked)  6.37%
58. Cc1cccc(C(=O)NCCN2CCOCC2)c1[N+](=O)[O-]  6.17%
59. CCOC(=O)c1sc2cccc(Cl)c2c1N  4.86%
60. CC(=O)N1CCOc2ccc(S(=O)(=O)N3CC(C)CC(C)C3)cc21 (centres unmarked)  4.86%
61. Cc1ccc(OCc2cc(C(=O)N3CCN(C)C[C@@H]3c3ccccc3)no2)cc1C  4.16%
62. Cc1nn(Cc2cccc(C(=O)NC3CCCCC3)c2)c(C)c1Cl  4.01%
63. CCn1c(SCC(=O)Nc2nccs2)nnc1-c1ccccc1  3.94%
64. O=C(CN(Cc1ccccc1Cl)C(=O)Cn1nnc(-c2cccs2)n1)NCC1CCCO1 (centres unmarked)  3.73%
65. Cc1nnsc1C(=O)N1CCN(c2ccc(C#N)cn2)CC1  3.48%
66. CCOc1ccc(C(=O)C(c2ccccc2)N2CCOCC2)cc1.Cl (centres unmarked)  3.32%
67. O=[N+]([O-])c1cn(-c2nc(-c3ccco3)cc(C(F)(F)F)n2)cn1  2.23%
68. CCOP(=O)(OCC)C(Nc1cccc([N+](=O)[O-])c1)c1ccccc1 (centres unmarked)  1.26%
69. COc1ccc(C(=O)Nc2ccc(S(=O)(=O)NCc3ccco3)cc2)cc1OC  -0.151%
70. CC(=O)c1cccc(NC(=O)CSc2nc(=O)n(CCN3CCOCC3)c3c2CCC3)c1  -0.182%
71. CCOc1ccc(Oc2cc(N)cc([N+](=O)[O-])c2)cc1  -0.25%
72. CCOc1cccc2cc(C(=O)N3CCN(C/C=C/c4ccccc4)CC3)c(=O)oc12  -0.522%
73. COc1ccccc1C(CNC(=O)COc1cc(C)ccc1Cl)N1CCCC1 (centres unmarked)  -0.736%
74. Cc1nn(-c2ccccc2)c2sc(C(=O)NC3CC3)cc12  -1.41%
75. Cc1nnc(N/N=C\c2ccc(-c3ccccc3[N+](=O)[O-])o2)n1N  -1.87%
76. CCOC(=O)C1=C(NC(=S)NC(=O)c2ccccc2)c2ccccc2CC1(C)C  -1.99%
77. CCn1c(SCC(=O)N2CCCc3ccccc32)nc2c1c(=O)n(C)c(=O)n2C  -2.02%
78. CC12CCCCC1=NC(c1ccc(Br)cc1)N2O (centres unmarked)  -2.43%
79. CCOC(=O)C1CCN(S(=O)(=O)c2ccc3[nH]c(=O)ccc3c2)CC1  -2.48%
80. Cc1cccc2sc(NC(=O)CN3C(=O)NC4(CCCC4)C3=O)nc12  -2.61%
81. Cc1cc(-c2nnc(SCC(=O)NC3CCCC3)o2)no1  -3.78%
82. COc1ccc2c(=O)c3c(=O)n(Cc4ccco4)c(-c4ccccc4)nc3oc2c1  -4.12%
83. COCC(=O)N1CCC(Oc2ccc(C(=O)NCc3cc(C(C)C)no3)cc2)CC1  -5.23%
84. O=C(Nc1ccccc1)C1CC=CCC1C(=O)OCC1CCCO1 (centres unmarked)  -5.31%
85. O=C(c1ccc(=O)n(Cc2ccccc2)n1)N1CCN(C/C=C/c2ccccc2)CC1  -10%
86. Cc1cccc(-c2sc(Nc3ccccc3)n[n+]2-c2ccccc2)c1.[Cl-]  -10.2%
87. O=C(Nc1ccc(Cl)cc1)C1CCCN(C2=NS(=O)(=O)c3ccccc32)C1 (centres unmarked)  -13.1%
88. O=C(NCCCN1CCc2ccccc2C1)Nc1ccc(Br)cc1  -17.6%
89. O=C(CN1CCCC1)N/N=C/c1ccc(-c2cccc(Cl)c2)o1  -43.9%
